Among the data in article PMC12136788 are binding signal values, retold here.

T1: UNK ZnF1-3 (human, UniProt Q9C0B0 31-174)
T1 sequence: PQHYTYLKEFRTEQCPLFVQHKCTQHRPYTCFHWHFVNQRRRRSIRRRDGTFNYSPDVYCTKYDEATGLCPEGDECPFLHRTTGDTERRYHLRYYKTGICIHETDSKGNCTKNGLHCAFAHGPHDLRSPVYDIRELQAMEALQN

B1: chr11:105967523:105967524:+_ENSG00000149313_ENST00000278618|hu_mus|FALSE|FALSE (ssRNA)
RNA: GGGAGUUCUACAGUCCGACGAUCCCAAAAUGAAGGAUCCUCAGGUGUCAUAGGAAUAGCAGAUGCUACCAAAUCAUUAAAAUUAAGAAUGGUAAACUUCCUCUGGGAUAGCUUAGAAUCAUCUUGAUAUGAAACAUUUUGAUGCAACAGAGGAUUGAGCAUCA
B2: chr5:137537078:137537079:-_ENSG00000094880_ENST00000394886|hu_mus|FALSE|FALSE (ssRNA)
RNA: GGGAGUUCUACAGUCCGACGAUCGAAUCCAUCAAGUCCCCGAGCCUGGUGCUUCCGGCUGAGUUCCACUCUCAGUUCUCUGAGAGCCUCGUUUUUGACUUGUCCCUUCUCUAGGGGUCCUAGGCUAUCAACUGUUUCGUCAUCCAACAGAGGAUUGAGCAUCA
B3: 101920281_101920401_2076_3pUTR_ENSMUSG00000017314_ENSMUST00000017458|mouse|control|control (ssRNA)
RNA: GGGAGUUCUACAGUCCGACGAUCGCAGUGUCACGAACCUCCUGACCACAAGGUCCCAAGCAGCUCUGCUCUUCCCUGGACUGGGAAUUACAGGAGUGAUCUGAGACACUCCUAGACACAGCAUGAUCCUUAGAAAAGGGUGUCCAACAGAGGAUUGAGCAUCA
B4: chr6:75965845:75965846:-_ENSG00000112697_ENST00000230461|hu_mus|motif|central (ssRNA)
RNA: GGGAGUUCUACAGUCCGACGAUCAUUUGGUUUCAGAAUAUAAAAUUAAAUGGUGAUGUCAGCAGUGUUACUACUGUUUCGGUAUUUAUGAUUAAUUACUAGCAGUACAACUCCCAGAAGGAAAGAGAUGGAUCCAAUAGUGAUCAACAGAGGAUUGAGCAUCA
B5: chrX:98614190:98614191:-_ENSMUSG00000031310_ENSMUST00000121520|mus_hu|FALSE|FALSE (ssRNA)
RNA: GGGAGUUCUACAGUCCGACGAUCAGGGGGGGCCCAUCCUCGAGUUGGGGCAGUCUGGGAUUCCAGUAGAUCCUCUCCAAAUUCCAUGUCUACUGGUAGGUCUCCAGCCAGGGGCUUCUCUGGCAGGGUCAAUGGGUCAAAUGGCAACAGAGGAUUGAGCAUCA
B6: chr2:174291214:174291215:-_ENSMUSG00000016257_ENSMUST00000016401|mus_mus|FALSE|FALSE (ssRNA)
RNA: GGGAGUUCUACAGUCCGACGAUCUUUUGUUUAGAUCAAAAGUCACAGCCUUACCCCACCUCAUUAAAAAAAAAGAUCUACCUAAAAUAAUUGUGUCUUUUAAAUAACAAAUAAUAUGAUGCCAGCUUGAGAGUCCUGGAGCCCCAACAGAGGAUUGAGCAUCA
B7: 43628485_43644409_965_CDS_ENSG00000112992_ENST00000512996|human|control|control (ssRNA)
RNA: GGGAGUUCUACAGUCCGACGAUCUCCUGGCUUAGUGGUUUCAAAGUUUCCACCAGCCUCAGCAGCUAAAUCCACAACAACUGAACCUUCCUUCAUUGACUCAAUCAUUUCUUUAUUAAAUAAAACUGGAGCUUUUUUACCUGGCAACAGAGGAUUGAGCAUCA
B8: chr5:37680062:37680063:+_ENSMUSG00000029121_ENSMUST00000031004|mus_hu|mus_mus_mus_hu_False|38_48 (ssRNA)
RNA: GGGAGUUCUACAGUCCGACGAUCUUUGGGUGUAGCUGGUACCUCGUACACAGGACCGUCAUACAUGCCCCUGGAAACCCCUUGCAACCCGAAAACCUUGCUUCUGAUUUUGACGCGCUGGUACAGGUGCUCCGGGAACGCCUUCAACAGAGGAUUGAGCAUCA
B9: chr18:51681570:51681571:-_ENSG00000134046_ENST00000256429|hu_mus|FALSE|FALSE (ssRNA)
RNA: GGGAGUUCUACAGUCCGACGAUCUAGAUAUAUACAUCAAAAAUACAUCUAAAAAGGCAUUGGUUAGUGCUAUUAAAAAGCUAUGUGCUCAGGUACACUUUUUCUUACAGGCGAAACCCAGUGGAAAUGUUUUAAUUCUGUUUCCAACAGAGGAUUGAGCAUCA
B10: chr12:113201503:113201504:-_ENSMUSG00000021290_ENSMUST00000021719|mus_mus|FALSE|FALSE (ssRNA)
RNA: GGGAGUUCUACAGUCCGACGAUCCCUGAUUUUAUAUACGAUGAGGCUCAUUAACCCCACUCCUACCCAAAUUUCCUGGUAAACCUGGGUAUAGUAGGGUUUCAUGGGGACCCAGACUUUUUGAAUCAAGGUUUGAAACAUCUCCAACAGAGGAUUGAGCAUCA
B11: chr7:100804371:100804372:+_ENSG00000106367_ENST00000337619|hu_hu|motif|central (ssRNA)
RNA: GGGAGUUCUACAGUCCGACGAUCCUUGCCCUUCCCCCAACCCUUCCUUCCCUCAAAGUGGCAAGGUUAGAAAAAAAUUAACGGUGUUGUUCCUCCCUGGCACUGGAUAAAGGCCCCACUGCAGCCAAGGAGAAAGAGGGGGGUCAACAGAGGAUUGAGCAUCA
B12: chr11:51926749:51926750:+_ENSMUSG00000020349_ENSMUST00000020608|perfect_dup|FALSE|FALSE (ssRNA)
RNA: GGGAGUUCUACAGUCCGACGAUCGUCCACAUAGUCUCCCAUAAACAGGUAAUUUGUAUCUGGUGAUUUACCACCAAUUCUAAAGAGUUCCAUGAGAUCAUGAAAUUGCCCAUGUACAUCUCCACACACAGUGACUGGACAUCGCAACAGAGGAUUGAGCAUCA
B13: chr6:83927055:83927056:+_ENSMUSG00000030016_ENSMUST00000032088|mus_mus|FALSE|FALSE (ssRNA)
RNA: GGGAGUUCUACAGUCCGACGAUCUGUACUUUUUGCUUUAGGAGAAGAGACCACAGUAGCCUUGAUGCUUGAUUUACUACUAUAUACAUUUGAUACAGUCAGCACACUACUUUUACCAGUUUCAUCAGGCUUACUGGUCUGAUCCAACAGAGGAUUGAGCAUCA
B14: chr4:25749455:25749456:-_ENSG00000091490_ENST00000264868|hu_hu|hu_hu_hu_mus_False|48_108 (ssRNA)
RNA: GGGAGUUCUACAGUCCGACGAUCGCAAGCACUAGGAUAGAAAAAUCCACAGGGGGAAAAAAUGUAAACCAAUGUACAAUGUUAUCGCCCUCCCUGCGUGUGGAGUGUUUGUCUCAAGGCUCCUUCUAGCUGCUGGAUUUGGGACAACAGAGGAUUGAGCAUCA
B15: chr4:76721835:76721836:+_ENSG00000138768_ENST00000264904|hu_mus|hu_hu_hu_mus_True|28_48 (ssRNA)
RNA: GGGAGUUCUACAGUCCGACGAUCGUUUGGCUGGGGUUUCUGAGACGCUCUGGAAUAUAACUCAUGUUUGCUAAUAAAUCCUAGUUUUCUAUGAAAUUUCUCUUUGCAAUCCUCUUCCUCUAUUAGUUGCUUUAGUUUCUCUUUCAACAGAGGAUUGAGCAUCA
B16: chr1:225611761:225611762:-_ENSG00000143815_ENST00000272163|hu_mus|hu_hu_hu_mus_True|8_38 (ssRNA)
RNA: GGGAGUUCUACAGUCCGACGAUCCCAGGCCAUCGGCCUCUGACCACUUCACCCUCAACAAACUUCCUACUUGGCAUUUUCUAAAAUUAGUCUGGCCCAGGUUCCGGGGGAACUCCAGCCACUCCAGGGAGAAUAGUAGCAGCCCAACAGAGGAUUGAGCAUCA
B17: chr1:220355683:220355684:-_ENSG00000118873_ENST00000358951|hu_mus|FALSE|FALSE (ssRNA)
RNA: GGGAGUUCUACAGUCCGACGAUCGCUGUGGCACAUCUCUUCAGUGGAGCUUUCUCCAUGCAAACACUUCCAGAAAAAGAAACUGCCUAGAGCCACACACUCCUCCUCUCCGACCUUCCUUAUGCUCAGUGCAUCCUUCUCAUACAACAGAGGAUUGAGCAUCA
B18: chr1:163112212:163112213:-_ENSG00000143248_ENST00000313961|hu_hu|hu_hu_hu_mus_False|58_108 (ssRNA)
RNA: GGGAGUUCUACAGUCCGACGAUCUUUAUUUAUCCAGAAGAGUGAGUUACAUACUAGGCAAAGUAUUGGAUACAAUAUUCUAAAGAUAAACACUAUUGGUCCAGAAUUUAAAACUUUAUGAGCGAAGUGCUGGCACAGGACUUACAACAGAGGAUUGAGCAUCA
B19: chr14:66974463:66974464:+_ENSMUSG00000022044_ENSMUST00000074523|mus_hu|mus_mus_mus_hu_False|28_58 (ssRNA)
RNA: GGGAGUUCUACAGUCCGACGAUCUUGUAGGACGACUUAUUCAGGGGAUCGGCCAGGAAGCAGGAGCAGAACAAGGACACUAGUGGGAGCUCCUUCAUCUUCUCUUUAUAGGCUGCAAGGGUCAUGUUUCUGGGAUCUGGUGGCCAACAGAGGAUUGAGCAUCA
B20: chr5:125368827:125368828:+_ENSMUSG00000079215_ENSMUST00000111417|mus_hu|FALSE|FALSE (ssRNA)
RNA: GGGAGUUCUACAGUCCGACGAUCUAGCUUCAAAAGGGUUAGUCAUAUUCCCCAGCAACAGCAUGAUAAAAUAAUUCAACUAUGUAGAAAUAUAGAACUCUAGGACUAGCUGGAAACUCGGAAAUCAUUUAGCCUAAUGUUCUCCAACAGAGGAUUGAGCAUCA
B21: 52142372_52143545_1010_CDS_ENSG00000112118_ENST00000229854|human|control|control (ssRNA)
RNA: GGGAGUUCUACAGUCCGACGAUCAUUUUCUAGGUCUCGUUCCACCCCUCCCAAGAGCAAGCAGAGGAUUGCUUUCUUGACAUAGUCAUGCCCAUGGAUACUUGGGGCCAAUGACUUGGCCAGCUGGUCAAAGAUAUCCUUGGACAACAGAGGAUUGAGCAUCA
B22: chr16:45382771:45382772:-_ENSMUSG00000022661_ENSMUST00000163230|mus_mus|mus_mus_mus_hu_True|88_98 (ssRNA)
RNA: GGGAGUUCUACAGUCCGACGAUCCUGGGUCAUGUUAUGGGCCCAAUGGAUAGGGAGGGCAUGCUUCUCAAAAAAUGUGAGCUAUUGUCUAAGACUAACAAUAUUUAUCUAGCUAUAAAAAUAAGUUAAAUGAAUAAGUUAAGACAACAGAGGAUUGAGCAUCA

The list shows a part of the results.

The test deals with T1, UNK ZnF1-3. The test can be described thus: nsRBNS (natural sequence RNA bind-n-seq); RBNS binding buffer (assumed for nsRBNS): 25 mM Tris pH 7.5, 150 mM KCl, 3 mM MgCl2, 0.01% Triton X-100, 500 ug/ml BSA, 20 U/ml SUPERase-In, 4 C; UNK is unkempt and MSI1 is Musashi-1; names of the RNAs are library labels; protein concentration not given here; high values mean tight binding.
The molecule B1 gave a binding signal of 1.18 enrichment R.

B2 showed a binding signal of 0.49 enrichment R. For B3, the binding signal was determined as 1 enrichment R.

As to B4, the binding signal worked out at 1.31 enrichment R.

In turn, B5 returned a binding signal of 0.96 enrichment R. The figure for B6 is 2.45 enrichment R; for B7 it is 1.38 enrichment R. The figure for B8 is 0.662 enrichment R; for B9 it is 1.23 enrichment R.

Molecule B10 had a binding signal of 0.584 enrichment R. With B11, the binding signal is 1.58 enrichment R. The figure for B12 is 1.07 enrichment R. Molecule B13 came in with a binding signal of 0.808 enrichment R. Take B14: the binding signal is 1.13 enrichment R. The molecule B15 displayed a binding signal of 0.552 enrichment R. The figure for B16 is 1.29 enrichment R; for B17 it is 1.09 enrichment R; for B18 it is 1.78 enrichment R. The figure for B19 is 2.13 enrichment R; for B20 it is 1.38 enrichment R. The figure for B21 is 1.14 enrichment R; for B22 it is 0.965 enrichment R.
